Results taken from PMC10668032.
The other results are listed elsewhere or left out. At the low end of the ranking the order means little.

Target: SIX1 homeodomain (reference allele) (UniProt Q15475)
Test: universal protein binding microarray
Conditions: Universal all-10-mer PBM (8x60K, AMADID 030236), 300 nM GST-tagged protein, Alexa Fluor 488 anti-GST; buffer, salt, pH and temperature not stated; high values mean tight binding; most listed sequences are background and not binding sites; double strand, one strand shown

Row | Sequence | binding signal [E-score]
1 | AGTATCTG | 0.317
2 | CAGATAGG | 0.245
3 | CGATACAA | 0.288
4 | CTGAGTTA | -0.107
5 | ATCCAGTA | 0.242
6 | CTAATCAA | -0.0359
7 | CCCTTTCA | -0.169
8 | AGAGGTAA | -0.0671
9 | GTTGGCAA | -0.158
10 | CATTTACC | 0.0067
11 | AGGGAATG | -0.138
12 | TGAGGAAA | -0.267
13 | CATCGTCC | -0.0271
14 | CCACCGTC | -0.231
15 | GATTTAGC | -0.105
16 | CCGGTCAG | 0.0616
17 | ATATAGTC | 0.209
18 | AATTAAGC | -0.0562
19 | CATTTATA | 0.0779
20 | AATGTGTC | -0.189
21 | ACAAAGTA | -0.00139
22 | CCCAGGCC | -0.271
23 | CCCTCCCC | 0.0341
24 | CACGAGCA | 0.00855
25 | GATCTTAC | 0.275

Row | Sequence | binding signal [E-score]
26 | GCAATGCA | -0.0755
27 | AGACCTAG | -0.0843
28 | TCTATAAA | -0.0583
29 | GACTCTCA | 0.00039
30 | ACGTTAAA | -0.164
31 | ATGGAGCG | -0.0675
32 | ACATATAA | 0.114
33 | ATAAATGC | -0.187
34 | GAATAAGA | -0.161
35 | GTTCCTGA | -0.123
36 | CTATTCCC | -0.188
37 | AACCTTGT | -0.239
38 | ATCGCGTA | 0.189
39 | TCCCCGAA | 0.0531
40 | GTGGATTA | 0.133
41 | CCGGATCA | 0.454
42 | GCATGGTA | 0.125
43 | CCGGTAAC | -0.167
44 | TCCACTCA | -0.164
45 | AAATAGCG | -0.207
46 | AGTGTGAG | 0.0731
47 | ATGCACAG | -0.131
48 | ACGAGCTG | 0.103
49 | ACACTCCG | 0.027
50 | CCAATCGA | 0.046

Row | Sequence | binding signal [E-score]
51 | GATCCCAA | 0.275
52 | CATGGCCG | -0.222
53 | ACACATGC | 0.0304
54 | ACATCGGC | -0.0708
55 | AGGCACCC | -0.253
56 | CATTGTCG | -0.11
57 | CACTCCGA | -0.0253
58 | ACCGAGGG | -0.0296
59 | AGCGACCC | 0.0129
60 | GGGCAGAC | -0.0718
61 | TCTACGAA | 0.025
62 | CCCCGCTC | 0.0702
63 | GAGCTGCC | -0.0769
64 | CTATAAGA | -0.0489
65 | AGATCCGA | 0.276
66 | TCTGCCAA | -0.124
67 | ATTGTAAG | -0.0522
68 | ATGTCGAG | -0.182
69 | AGTCAAAC | -0.0826
70 | AAATCTGC | -0.112
71 | CAATCACG | -0.114
72 | CCCGGTCC | -0.205
73 | ACGATGTA | 0.0972
74 | ACTAAGAA | -0.0853
75 | CGGTAATC | 0.103

Row | Sequence | binding signal [E-score]
76 | CCAATTCG | -0.0862
77 | CAGTAAGC | -0.101
78 | GGGAGTGA | 0.0303
79 | TTATCCAA | 0.0728
80 | AGTGAAGA | 0.0921
81 | CTCACGGA | 0.0186
82 | CAGTGTTA | 0.0401
83 | AGCAAGCG | -0.0977
84 | GCCTCTGA | -0.111
85 | CGAAGCTC | -0.102
86 | CTTTAGGC | 0.00728
87 | AATCTTAT | 0.0451
88 | AGGTCAAT | -0.128
89 | CAACCTTG | -0.177
90 | AGCAGAGA | -0.0147
91 | ACCGACTG | -0.0812
92 | TACTTCGA | 0.115
93 | ATAGTGAT | 0.32
94 | AATTTCGA | -0.319
95 | ATCCTTTA | 0.187
96 | GCGGCAGA | -0.083
97 | ACCCCTAC | 0.0627
98 | ACGTTTGG | -0.161
99 | ACTCCTCG | -0.136
100 | TAGCAGAA | -0.0157

Row | Sequence | binding signal [E-score]
101 | CCCCGTCC | 0.0472
102 | CACTTGGA | 0.0426
103 | ATCAGTCC | 0.111
104 | AGTGGGTA | 0.135
105 | ACAGCGCA | -0.126
106 | AATACTAA | 0.0861
107 | ATCTATAG | 0.163
108 | AGGCGAGA | -0.129
109 | CACTGATC | 0.284
110 | GACGGTGC | -0.00636
111 | GTAACTTA | -0.124
112 | CCTCGGAG | -0.0564
113 | ATTTGCCA | -0.156
114 | GATGAACA | -0.222
115 | AGTGCGAT | 0.196
116 | AATCATAT | 0.178
117 | ATTCCCGC | -0.0675
118 | ATCTAGAT | 0.26
119 | CGCAGTAG | 0.0859
120 | CGCGCCCG | -0.0466
121 | AAGGCTTA | -0.179
122 | AATCTCCG | 0.0694
123 | GGCCGTTA | -0.0938
124 | GACGGTCA | -0.302
125 | CGGATTCA | 0.0989

Row | Sequence | binding signal [E-score]
126 | GAGTCTAA | -0.275
127 | ACTTACGA | -0.0251
128 | CGAAAGAG | -0.184
129 | ACGCCATG | 0.0292
130 | CCGAATCG | 0.0462
131 | CTCACCTA | 0.00877
132 | AATGAGAT | 0.278
133 | AACGTTCA | -0.392
134 | ACAAGTCC | -0.275
135 | CTTGGGAC | -0.199
136 | CAAGCGCC | -0.326
137 | AAAAATAA | -0.0193
138 | ATGATCCG | 0.452
139 | GGTGTATA | 0.372
140 | ACCGCCCA | 0.0623
141 | ACATCTTC | 0.00635
142 | ACTGAATC | -0.246
143 | ATCAAGCG | 0.228
144 | AATAACGC | -0.209
145 | GTCATGCA | -0.0685
146 | CTTCGCTA | -0.0154
147 | GTGACTCA | -0.215
148 | CGGCATGC | -0.0598
149 | GGTCCATA | -0.0714
150 | GCTGTTCA | -0.135

Row | Sequence | binding signal [E-score]
151 | ATTTGTAA | -0.0568
152 | AAGGACTC | -0.13
153 | GATTGACC | -0.0626
154 | CACTACTA | -0.07
155 | ATGAAGAC | 0.057
156 | CGCCTCCC | 0.0417
157 | TGTTCAAA | -0.162
158 | CTCCCTAA | -0.0339
159 | AGCCAGAC | -0.175
160 | ATCAACCG | 0.0632
161 | AACATCAT | -0.0426
162 | GCCCCAAA | -0.303
163 | GAATTATC | 0.0845
164 | CGCCATTA | -0.171
165 | AGATTCGC | -0.0636
166 | AATGCTCG | -0.176
167 | ACGTTGAA | -0.199
168 | CTATACAG | 0.183
169 | ACTTTCCA | -0.19
170 | AAGTTTAA | -0.122
171 | AACTCTGG | -0.0692
172 | TCAGGTCA | -0.00983
173 | CACGACAG | -0.0349
174 | GGCCGTAA | -0.207
175 | GCCCCCAC | -0.145

Row | Sequence | binding signal [E-score]
176 | CCTAAACA | -0.0963
177 | CGACGACA | -0.0939
178 | ACTCTGGG | -0.0596
179 | CCAGTCGG | -0.0339
180 | AAATGTAA | -0.0702
181 | GGGCTACA | -0.0372
182 | CGCTTTAA | -0.0481
183 | CAGTACGC | -0.0446
184 | GCATAGGC | -0.222
185 | CAGAGAAG | -0.0527
186 | CCTTAGGC | -0.161
187 | TCTATGAA | 0.00915
188 | ACAGCTGT | -0.132
189 | CCATTCTA | -0.0599
190 | ACCATTCA | -0.214
191 | ACGTATAT | 0.271
192 | GTGCACCA | -0.2
193 | AAATTACA | -0.296
194 | CCATAGCG | -0.141
195 | CTAAGTGC | -0.189
196 | ACCCGAGT | 0.197
197 | GCGTGCAC | -0.239
198 | CAGTCCGA | -0.0927
199 | GAACTATA | 0.0528
200 | CTTTTCTC | -0.281

Row | Sequence | binding signal [E-score]
201 | CACTTAAC | -0.22
202 | CCATTCCC | -0.0216
203 | AGTCCTAT | 0.0324
204 | ACGCTCAA | -0.121
205 | CCATGATA | 0.376
206 | ATATATAC | 0.373
207 | AATGAGGC | -0.146
208 | AGTTACCA | 0.00423
209 | ATTCGAGG | -0.0529
210 | ACCGCCAT | -0.144
211 | CACGTCAA | -0.136
212 | ATTTGTCC | -0.0424
213 | ATACCACA | 0.3
214 | ACTATGGG | 0.0372
215 | TACTACAA | 0.126
216 | ATCACCTG | 0.33
217 | ACGGCAAG | -0.175
218 | ATCACAGC | 0.276
219 | CAACCAAG | -0.109
